Reference: patent US7888332B2, “Hydrazide-containing CFTR inhibitor compounds and uses thereof” (The Regents of the University of California, priority 2004, dated 2011)

Target: CFTR (Homo sapiens, UniProt P13569)
Experiment: Short-circuit current (apical Cl− current) analysis on permeabilized CFTR-expressing FRT cells
Conditions: compared with parent analogs

Sequence of UniProt P13569 (P13569 whole entry): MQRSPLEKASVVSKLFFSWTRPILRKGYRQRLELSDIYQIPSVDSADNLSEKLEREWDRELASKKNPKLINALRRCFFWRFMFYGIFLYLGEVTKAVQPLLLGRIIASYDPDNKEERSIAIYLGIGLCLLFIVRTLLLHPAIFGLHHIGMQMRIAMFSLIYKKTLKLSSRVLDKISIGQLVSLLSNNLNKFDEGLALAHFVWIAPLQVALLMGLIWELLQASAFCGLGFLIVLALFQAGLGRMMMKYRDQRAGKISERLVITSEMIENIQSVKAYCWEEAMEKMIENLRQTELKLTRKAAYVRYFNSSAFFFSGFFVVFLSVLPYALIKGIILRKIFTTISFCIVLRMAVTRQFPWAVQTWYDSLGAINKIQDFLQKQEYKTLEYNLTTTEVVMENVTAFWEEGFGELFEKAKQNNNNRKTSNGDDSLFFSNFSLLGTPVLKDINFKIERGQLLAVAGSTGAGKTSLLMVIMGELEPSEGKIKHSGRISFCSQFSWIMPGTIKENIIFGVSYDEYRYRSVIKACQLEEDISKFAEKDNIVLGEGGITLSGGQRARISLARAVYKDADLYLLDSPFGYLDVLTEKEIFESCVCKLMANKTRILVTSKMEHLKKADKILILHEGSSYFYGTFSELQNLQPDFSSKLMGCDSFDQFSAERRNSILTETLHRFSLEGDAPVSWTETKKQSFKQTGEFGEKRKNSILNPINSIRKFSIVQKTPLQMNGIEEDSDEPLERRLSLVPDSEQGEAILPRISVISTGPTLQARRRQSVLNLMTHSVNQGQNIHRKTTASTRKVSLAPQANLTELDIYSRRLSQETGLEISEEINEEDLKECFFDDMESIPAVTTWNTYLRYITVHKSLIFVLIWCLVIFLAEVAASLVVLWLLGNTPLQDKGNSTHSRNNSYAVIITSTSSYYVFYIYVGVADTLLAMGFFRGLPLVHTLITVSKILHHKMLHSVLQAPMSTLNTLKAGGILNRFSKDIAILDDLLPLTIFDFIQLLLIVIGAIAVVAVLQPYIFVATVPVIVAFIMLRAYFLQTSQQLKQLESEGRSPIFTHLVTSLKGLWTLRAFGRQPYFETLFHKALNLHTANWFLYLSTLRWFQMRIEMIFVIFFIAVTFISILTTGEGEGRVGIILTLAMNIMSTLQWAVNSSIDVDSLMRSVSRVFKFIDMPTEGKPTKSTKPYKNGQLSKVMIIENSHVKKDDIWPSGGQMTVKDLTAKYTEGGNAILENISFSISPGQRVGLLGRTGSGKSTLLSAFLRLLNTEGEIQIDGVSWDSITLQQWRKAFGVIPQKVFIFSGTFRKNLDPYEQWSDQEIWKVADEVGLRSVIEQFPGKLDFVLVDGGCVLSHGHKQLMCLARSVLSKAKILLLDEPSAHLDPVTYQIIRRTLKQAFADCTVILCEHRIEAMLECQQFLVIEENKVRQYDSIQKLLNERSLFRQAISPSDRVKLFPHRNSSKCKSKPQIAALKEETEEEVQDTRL

Structure (SMILES) | CFTR inhibition, structure-activity statement in words
O=C(CNc1ccc2ccccc2c1)NN=Cc1cc(Br)c(O)c(Br)c1O [GlyH-101, N-2-napthalenyl-[(3,5-dibromo-2,4-dihydroxyphenyl)methylene]glycine hydrazide] | increased inhibition
O=C(CNc1ccc2ccccc2c1)NNC(=O)c1cc(Br)c(O)c(Br)c1 [GlyH-202, 3,5-dibromo-4-hydroxy-[2-(2-napthalenamine)aceto]benzoic acid hydrazide] | reduced CFTR inhibitory potency
O=C(CNc1ccc2ccccc2c1)N/N=C/c1cc(Br)c(O)c(Br)c1 [GlyH-102] | Good CFTR inhibition
O=C(CNc1ccc2ccccc2c1)NNC(=O)c1cc(Br)c(O)c(Br)c1O [GlyH-201, 3,5-dibromo-2,4-di-hydroxy-[2-(2-napthalenamine)aceto]benzoic acid hydrazide] | reduced CFTR inhibitory potency
CC(=NNC(=O)CNc1ccc2ccccc2c1)c1cc(Br)c(O)c(Br)c1 [GlyH-109] | improved CFTR inhibition
O=C(CNc1ccc2ccccc2c1)NNCc1cc(Br)c(O)c(Br)c1 [GlyH-302] | reduced CFTR inhibitory potency
O=C(CNc1cccc2ccccc12)NN=Cc1cc(Br)c(O)c(Br)c1 [GlyH-105] | Good CFTR inhibition
O=C(CNc1ccc(Cl)cc1)NN=Cc1cc(Br)c(O)c(Br)c1 [GlyH-114] | Good CFTR inhibition
O=C(CNc1ccc2ccccc2c1)NNCc1cc(Br)c(O)c(Br)c1O [GlyH-301, N-2-napthalenyl-[(3,5-dibromo-2,4-dihydroxyphenyl)methyl]glycine hydrazide] | reduced CFTR inhibitory potency
O=C(CNc1cccc2ccccc12)NN=Cc1cc(Br)c(O)c(Br)c1O [GlyH-104] | increased inhibition
COc1c(Br)cc(C=NNC(=O)CNc2ccc3ccccc3c2)c(O)c1Br [GlyH-103] | little activity
